Source: paper PMC12040169 (PLOS Biology, 2025)
Some of the results follow.

Tested on: T1, C. trachomatis L2/434/Bu expressing GFP (CTL2-GFP)
T1 construct: L2/434/Bu GFP intracellular growth in HeLa cells
Design: species or system HeLa; C. trachomatis total inclusion area by high-content imaging, normalised to DMSO
Conditions: total inclusion area; 28.5 h, 10 µM; inhibitor
Method in brief: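 Host cell viability was gauged from Hoechst-stained nuclei counts, while chlamydial growth was taken from total inclusion area and inclusion number per well. Cells were fixed and imaged by high-content microscopy once bulk GFP and resorufin fluorescence had been measured.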

| SMILES | % of control remaining |
| --- | --- |
| Cc1nc2cc(-c3nccn3C)nn2c(N2CCN(c3ccc(O)cc3)CC2)c1C [CBK286427] | 101.17 |
| O=C(Nc1ccccc1)[C@H]1O[C@H](CCN2CCN(c3ccccc3)CC2)CC[C@@H]1O [CBK288725] | 92.9152 |
| O=C(Cc1c[nH]c2ccccc12)N1CCC2(CCCN(C(=O)c3c(F)cccc3F)C2)C1 (stereo not shown) [CBK131605] | 83.6513 |
| CS(=O)(=O)c1ccc(-c2cnc3nc(N)ccc3c2)cc1 [CBK061916] | 88.5723 |
| c1ccc(Cn2c3ccccc3c3nnc(SCc4ccc5nonc5c4)nc32)cc1 [CBK267517] | 120.527 |
| COC(=O)c1sccc1NC(=O)c1ccc(F)cc1Cl [CBK270325] | 131.993 |
| O=C(CN1CCN(c2ccccc2)CC1)Nc1ccc(Cl)cc1C(=O)c1ccccc1 [CBK265827] | 130.808 |
| COc1ccc(Cl)cc1N1CCN(Cc2ncc[nH]2)CC1 [CBK126418] | 109.869 |
| CN(C(=O)CSc1nnn(C)n1)c1ccccc1 [CBK058129] | 90.7019 |
| CC(C)(C)OC(=O)NC1CCc2ccccc2N(Cc2ccccc2)C1=O (stereo not shown) [CBK013366] | 102.563 |
| O=C(CN1C(=O)N2CCCN=C2c2ccccc21)N1CCCCCC1 [CBK284399] | 74.0193 |
| CC(=O)N(Cc1cccnc1)c1nc2cc3c(cc2s1)OCCO3 [CBK287696] | 89.5916 |
| Cc1cc2ccccc2n1CCCNS(=O)(=O)c1ccc2[nH]c(=O)[nH]c(=O)c2c1 [CBK286362] | 102.595 |
| Cc1csc(SC(C)C(=O)N2CCc3ccccc32)n1 (stereo not shown) [CBK305909] | 30.1485 |
| O=C(O)CCC(=O)N1CCC(c2nnc3ccccn23)CC1 [CBK287920] | 84.6311 |
| O=S(=O)(Nc1ccc(C(O)(C(F)(F)F)C(F)(F)F)cc1)c1cccc2nsnc12 [CBK062096] | 123.627 |
| O=C(NNC(=S)NCCc1ccccc1)c1ccc(Br)o1 [CBK266818] | 90.2219 |
| O=C(NCC1c2ccccc2CCN1C(=O)CN1C(=O)c2ccccc2C1=O)C1CCCCC1 (stereo not shown) [CBK262582] | 104.284 |
| CCn1nc(C)c(-c2cncn2CC(C)n2nc(C)cc2C)c1C (stereo not shown) [CBK281777] | 101.112 |
| Nc1ncc(-c2ccco2)nc1NCc1ccco1 [CBK063682] | 93.5249 |
| O/N=C1/c2ccccc2/C(=N/O)C1c1ccccc1 [CBK261122] | 86.297 |
| c1cn2c(-c3ccoc3)cnc(N3CCOCC3)c2n1 [CBK091292] | 101.271 |
